SMILES strings stand for the structures. Some of the results follow.

In the experiment the test system is HSkMC (human skeletal muscle cells). In words: cytotoxicity call (relative viability < 0.9). The following applies: 10 µM.
Turning to `CO[C@H]1CN(C)C(=O)c2cc(NC(=O)Nc3ccccc3F)ccc2OC[C@@H](C)N(Cc2ccccc2C(=O)O)C[C@H]1C`, the cytotoxicity call is “inactive”.
The entry for `NNC(=O)c1ccncc1.Nc1ccc(C(=O)O)c(O)c1` is “inactive”.
To `C[C@@H]1CCCCO[C@H](CN(C)C(=O)C2CCCCC2)[C@H](C)CN([C@@H](C)CO)C(=O)c2cc(NC(=O)c3ccncc3)ccc2O1` belongs “inactive”; to `C[C@@H]1CN([C@@H](C)CO)C(=O)c2cc(NC(=O)Cc3ccccc3)ccc2O[C@@H](C)CCCCO[C@@H]1CN(C)S(=O)(=O)c1ccc(Cl)cc1`, “inactive”; to `C[C@H]1CN([C@@H](C)CO)C(=O)Cc2cc(NC(=O)Nc3cccc4ccccc34)ccc2O[C@@H]1CN(C)CC1CCCCC1`, “active”.
To `C[C@H]1CN([C@@H](C)CO)C(=O)c2cc(NS(C)(=O)=O)ccc2O[C@@H]1CN(C)Cc1ccc(C(=O)Nc2ccccc2N)cc1` belongs “inactive”; to `O=C(CCCCCNC(=O)OCCCCO[C@@H]1C[C@H](c2ccc(Br)cc2)C=C(C(=O)N2CCN(Cc3ccccc3)CC2)O1)NO`, “inactive”.
`C[C@@H]1CN([C@@H](C)CO)C(=O)c2cc(NC(=O)Nc3ccc(C(F)(F)F)cc3)ccc2O[C@@H](C)CCCCO[C@H]1CN(C)S(=O)(=O)c1ccccc1`: the cytotoxicity call is “inactive”.
The entry for `O=Cc1ccc(CO)o1` is “inactive”; for `Cc1ccc(S(=O)(=O)N(C)C[C@@H]2Oc3ccc(NC(=O)Nc4ccc(C(F)(F)F)cc4)cc3CC(=O)N([C@@H](C)CO)C[C@H]2C)cc1` it is “active”; for `C[C@@H]1CN([C@@H](C)CO)C(=O)c2cc(NC(=O)NC3CCCCC3)ccc2O[C@@H](C)CCCCO[C@H]1CN(C)Cc1ccc(Cl)c(Cl)c1` it is “inactive”.

(Values after the antibiotic and cytotoxicity screens of Wong et al. (2023).)
